Assay results from PubChem BioAssay AID624296 (National Center for Advancing Translational Sciences (NCATS), 2012).
Screen size: about 350,000 compounds; about 9,900 (2.8%) were called active. The shares of active, inactive and inconclusive entries below differ from those in the screen. Calls come from the whole dose curve; as a rule, active = well fitted activation curve with a large enough effect; inconclusive = small, poorly fitted or top-dose-only effect; inactive = no such curve, though single readings can be large or run the other way. Potencies of inconclusive entries are left out as doubtful fits.

Test: A quantitative high throughput screen for small molecules that induce DNA re-replication in MCF 10a normal breast cells. Note: nearly all actives have a fitted effect of over 50% in size.
Conditions: MCF 10A DNA re-replication, Hoechst nuclear intensity, 48 h; series mostly up to 46.1 µM
Potency is the fitted concentration of half-maximal effect; tags give direction and shape of the fitted curve.

| Structure (SMILES) | Potency |
| --- | --- |
| CCOC(=O)c1c(C)c(C(=O)NCCN2CCOCC2)c(C)n1CC | inactive |
| COc1ccc(CC2(CO)CCN(C/C=C/c3ccccc3OC)CC2)cc1 | inactive |
| Cc1ccc(NC(=O)c2ccc([N+](=O)[O-])o2)c(C)c1 | inconclusive [activator, single point] |
| CC1=C(C(=O)O)N2C(=O)C(NC(=O)c3nn(C)c(C)c3Cl)C2SC1 (centres undefined) | inconclusive [activator, single point] |
| CC1CCCN(C(=O)c2cc(-c3cccs3)nc3ccccc23)C1 (centres undefined) | inconclusive [activator, single point] |
| COc1ccccc1N1CCN(C(=O)c2cccc(S(=O)(=O)N3c4ccccc4CC3C)c2)CC1 (centres undefined) | inconclusive [activator, partial curve, poor fit] |
| CCn1cc(C(=O)N(C)c2cc(C)ccc2OC)c2cc(OC)c(OC)cc2c1=O | inactive |
| COc1ccc(-n2c(C)cc(C(=O)CN3C(=O)c4ccccc4C3=O)c2C)cc1 | inactive |
| Cc1onc(-c2ccccc2)c1C(=O)Nc1ccccc1C#N | inconclusive [activator, single point] |
| CC(C1CC1)N(Cc1ccccc1)C(=O)NC(=O)c1ccccc1 (centres undefined) | inactive |
| Cc1cc(-c2cc(C(=O)NCc3ccccc3)on2)nc(S(C)(=O)=O)n1 | inconclusive [activator, single point] |
| O=C(O)CSc1nnc(-c2ccc(Cl)cc2Cl)n1-c1ccc(Br)cc1 | inconclusive [activator, single point] |
| C/C(=N\NC(=O)c1c(Cl)cnn1C)c1ccc(NC(=O)c2ccc(Br)o2)cc1 | inconclusive [activator, single point] |
| CN(Cc1ccccc1)C(=O)c1ccc(NC(=O)Cc2ccc(NC(=O)C3CCN(C(=O)C4CCC4)CC3)cc2)cc1 | inactive |
| O=C(Nc1ccc(N2CCN(C(=O)c3cccs3)CC2)c(Cl)c1)c1ccco1 | inconclusive [activator, partial curve, poor fit] |
| O=C(C1CCN(C2CCN(C/C=C/c3ccccc3)CC2)CC1)N1CCOCC1 | inconclusive [activator, single point] |
| O=C(CCNS(=O)(=O)c1ccc(Br)cc1)N1CCCCCCC1 | inactive |
| O=C1COc2ccc(C(=O)CSc3nnc(-c4cccs4)n3Cc3ccccc3)cc2N1 | inconclusive [activator, partial curve, poor fit] |
| CCCNC(=O)c1ccccc1NC(=O)COc1cccc2c1OC(C)(C)C2 | inconclusive [activator, partial curve, poor fit] |
| CNS(=O)(=O)c1ccc2nc(NC(=O)c3ccc(N4C(=O)CCC4=O)cc3)sc2c1 | inactive |
| Cc1c2cnccc2c(C)c2c1oc1ccccc12 | inconclusive [activator, single point] |
| COc1ccc(/C=C/c2onc(C)c2S(=O)(=O)N2CCC(C(=O)N3CCC(C)CC3)CC2)cc1 | inconclusive [activator, single point] |
| S=c1[nH]nc(COc2cccc3ccccc23)n1Cc1ccccc1 | inconclusive [activator, single point] |

| Structure (SMILES) | Potency |
| --- | --- |
| CCC(CO)Oc1cc(NC(=O)c2ccccc2N)c2ncn(C(C)C)c2c1 (centres undefined) | inconclusive [activator, partial curve, poor fit] |
| CCc1nc2sc3c(c2c(=O)n1N)CC(C)(C)OC3 | inactive |
| O=C(COC(=O)c1ccccc1Nc1ccccc1)c1ccccc1 | inconclusive [activator, single point] |
| COc1ccc(N2CCC(CNC(=O)Nc3ccc(Cl)cc3)C2)cc1 (centres undefined) | inactive |
| N/C(Cn1cncn1)=N\NC(=O)C(=O)Nc1ccccc1 | inactive |
| COc1ccc(S(=O)(=O)NC2CCCC2)cc1C(N)=O | inactive |
| Cc1cc(OC(=O)N2CCCCC2)cc(C)c1Cl | inconclusive [activator, single point] |
| C[C@H](NC(=O)[C@@H]1Cc2ccccc2CN1)C(=O)NC1CCCC1 | inconclusive [activator, single point] |
| Cc1cccc(C)c1OCC(=O)N/N=C/C=C/c1ccco1 | inconclusive [activator, single point] |
| Cc1cc(SCC(=O)c2cccs2)n2nc(C)c(-c3ccccc3)c2n1 | inconclusive [activator, single point] |
| Cc1ccc(C)c(N2CCN(C(=O)CCc3nc(-c4cccc(Cl)c4)no3)CC2)c1 | inconclusive [activator, single point] |
| Cc1ccc2cc(CN(Cc3ccco3)C(=O)c3ccccc3)c(=O)[nH]c2c1C | inconclusive [activator, single point] |
| Cc1ccc(NC(=O)CCNC(=O)c2ccc(Br)cc2)cc1S(=O)(=O)N1CCCCCC1 | inconclusive [activator, single point] |
| O=C(Cc1cccs1)N1CCCC(c2nc3c(nnn3Cc3ccc(F)cc3)c(=O)[nH]2)C1 (centres undefined) | inconclusive [activator, partial curve, poor fit] |
| CCc1ccc(N2C(=O)c3ccc4c5c(ccc(c35)C2=O)CC4)cc1 | inconclusive [activator, partial curve] |
| COc1ccc(N2CCN(S(=O)(=O)c3c(C)[nH]c(C)c3C(=O)N3CCCCC3)CC2)cc1 | inactive |
| CCc1c(C(=O)Nc2cc(C)ccc2OC)[nH]c(C)c1C(C)=O | inconclusive [activator, partial curve, poor fit] |
| Cc1ccc(CSc2nc3ccncc3[nH]2)cc1 | inactive |
| Cc1cc(=O)[nH]c(=S)n1-c1ccccc1 | inconclusive [activator, single point] |
| CC12CCCC(C(C#N)C(N)=O)(C1)NC(=O)C2C#N (centres undefined) | inconclusive [activator, full curve, poor fit] |
| Cc1ccc(-n2c(C)cc(C(=O)COc3cccnc3[N+](=O)[O-])c2C)cc1 | active: 20.6 µM |
| Cc1cc(C)c2c(=O)n(CC(=O)Nc3ccc(Br)c(C)c3)sc2n1 | inconclusive [activator, single point] |
| CCOC(=O)c1cnc(-n2nc(C)cc2C)nc1NC(C)c1ccccc1 (centres undefined) | inactive |

| Structure (SMILES) | Potency |
| --- | --- |
| C=CCSc1nc2sc(-c3ccccc3)cc2c(=O)n1N | inconclusive [activator, partial curve, poor fit] |
| CCN(CC(=O)NCc1ccc(Cl)cc1)Cc1cc(=O)n2ccsc2n1 | inactive |
| O=C(c1cc(COc2cccc3cnccc23)on1)N1CCC(c2ccccc2Cl)C1 (centres undefined) | inactive |
| CN1CCN(S(=O)(=O)c2ccc(N3CCN(C(c4ccccc4)c4ccccc4)CC3)nc2)CC1 | inconclusive [activator, full curve, poor fit] |
| O=c1cc(-c2ccccc2)cc(-c2ccccc2)n1CCCO | inconclusive [activator, full curve, poor fit] |
| N#Cc1c(/N=C/c2cc(Br)cs2)sc2c1CCC2 | inactive |
| COc1ccc(CN(C)C(=O)Cn2cnc3c(NCc4ccccc4)ncnc32)cc1OC | inactive |
| Cc1ccc(S(=O)(=O)N(Cc2ccc(F)cc2)C(=O)N2CCN(C)CC2)cc1 | inconclusive [activator, single point] |
| Cc1ccccc1OCC(=O)Nc1ccc(N2CCN(S(C)(=O)=O)CC2)cc1 | inactive |
| COc1ccc(C(=O)c2ccc(Br)cc2)c2ccccc12 | active: 7.31 µM |
| O=C(c1cccc2ccccc12)C1CCCN(C(=O)CCN2CCCO2)C1 (centres undefined) | inactive |
| O=c1c2ccccc2c(C=Nc2cccc(S(=O)(=O)NCc3ccco3)c2)c(O)n1-c1ccc(Cl)cn1 | inconclusive [activator, single point] |
| CN(CC(O)COc1ccc2ccccc2c1)C1CCCCC1 (centres undefined) | inconclusive [activator, partial curve, poor fit] |
| O=C(Nc1ncc(Cc2ccc(SC(F)F)cc2)s1)c1ccc(OC(F)F)cc1 | inconclusive [activator, full curve, poor fit] |
| CCN(CC)CCCNC(=O)c1cc2nc(-c3ccccc3)cc(C(F)(F)F)n2n1 | active: 1.03 µM |
| Cc1cc2cc(CN(Cc3ccco3)S(=O)(=O)c3c(C)ccc4nsnc34)c(=O)[nH]c2cc1C | inconclusive [activator, full curve] |
| COc1ccc(Cl)cc1S(=O)(=O)Oc1ccc(NC(C)=O)cc1 | inconclusive [activator, partial curve, poor fit] |
| COc1cc(C(=O)Nc2sc3c(c2C(=O)NCc2ccco2)CCCC3)cc(OC)c1OC | active: 18.4 µM |
| Clc1ccc(-c2ccc(/C=N/Nc3cc(N4CCOCC4)nc(N4CCOCC4)n3)o2)cc1 | inconclusive [activator, single point] |
| N#CC1=C(N)SC(N)=C(C#N)C1CCc1ccccc1 | inconclusive [activator, single point] |
| CSc1nc2ccccc2cc1/C=C(\C#N)c1ccccc1 | active: 13 µM |
| CCn1c(CNC(=O)c2ccccc2F)cc2cc(C)ccc21 | inconclusive [activator, full curve, poor fit] |
| COc1ccc(O[C@H]2C=C[C@@H](c3ccccc3)O[C@@H]2CO/N=C(\C)CCN2CCCCc3nc(C)c(C)cc32)cc1 | inconclusive [activator, single point] |
